Read counts are not given, so values of variants with three or more changes are uncertain.
B1: CPEB3 Ribozyme (parent)
chain: UAACAGGGGGCCACAGCAGAAGCGUUCACGUCGCAGCCCCUGUCAGAUUCUGGUGAAUCUGCGAAUUCUGCUGUAUAUCUC

Variants of: B1
Assay: self-cleavage, relative activity (ratio to wild type); higher = more cleavage; in vitro, sequencing
Method in brief: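 Relative activity was defined as the cleaved/total read fraction for a variant divided by the same fraction for the unmutated ribozyme. CPEB3 self-cleaving ribozyme libraries were made by rounds of error-prone PCR, barcoded, and transcribed in vitro with T7 RNA polymerase for 5 hours at 37°C, and cleavage ran through transcription plus a 15 min DNase I step before EDTA. Illumina sequencing of template-switched reverse transcripts gave the reads, and DNA sequencing mapped the barcodes. Averages come from three batches, using variants with at least 5 reads.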

Variant	self-cleavage
U1C A21U U48C U54C A57G A65G	0.03
U1C A21U U58A	0.39
U1C A28C U54C A57G U76A	0.24
U1C A28G A35U G73C	0.56
U1C A28G A45U U72G	0.28
U1C A28G C37U C39A U41G	0.06
U1C A28G C38U	0.59
U1C A28G G30A U41C U72A	0.06
U1C A28G G33A A64G A65G U69A	0.12
U1C A28G U31A U43C A56U U76A U78C	0.05
U1C A28G U31C G36A A77G	0.07
U1C A28G U51A U66C	0.37
U1C A28G U54C	0.79
U1C A28G U58A U69C	0.14
U1C A28G U67C	0.16
U1C A28U A56G A64U	0.19
U1C A28U A57G A64G	0.55
U1C A28U G30A U31G U49G U69C	0.06
U1C A28U G33A	0.08
U1C A28U U49C U60A	0.18
U1C A28U U74C	1.22
U1C A28U U76A	0.67
U1C A35G A45G U54A	1.2
U1C A35G A45G U74A	1.28

Variant	self-cleavage
U1C A35G A57U U60A	0.59
U1C A35G A64G U76C	1.18
U1C A35G G36A A64U U67C	0.1
U1C A35G U43A	1.33
U1C A35G U49A	1.24
U1C A35G U51C A75G	1.26
U1C A35G U69C U80C	1.06
U1C A35G U78C	1.06
U1C A35U C39A A75U	0.4
U1C A35U C40A U54A A75U A77G	0.31
U1C A35U G46U U49A A65G	0.18
U1C A35U U51C A64U U78C U80A	0.1
U1C A35U U72C	0.5
U1C A45G A77G	0.9
U1C A45G U69C A77G	0.28
U1C A45G U72C U78C	0.8
U1C A45G U78A	0.79
U1C A45U U49C U72C U76C	0.15
U1C A45U U54C U58A	0.09
U1C A47G C50A A56G C62U A64G U67C	0.07
U1C A56C U78A	0.4
U1C A56G A57G	0.4
U1C A56G U80A	1.05
U1C A56U U69A	0.29

Variant	self-cleavage
U1C A56U U78A	0.32
U1C A57U A77U	0.65
U1C A64G U67C	0.17
U1C A64U C71A	0.19
U1C A64U U78C	0.13
U1C C4A U26C A77U	0.9
U1C C4U U25C C29U A45G	0.09
U1C C4U U26G	0.68
U1C C11A A13U U25A C39A U54A U69G	0.03
U1C C11A A28G U66C	0.08
U1C C11A U25C U26A A28G U80C	0.04
U1C C11G A13C U25C U43C U76A	0.36
U1C C11G C23U A28G U60A U69C U74C	0.04
U1C C11G U31C A45G U66C G73A	0.06
U1C C11U A35U	0.32
U1C C11U G24C C29A A35G U67C	0.08
U1C C12A U26C U48C A65G G73U A75U	0.02
U1C C12A U41C U43A U49C A57G G63U	0.23
U1C C12A U49C U60A U78C	0.07
U1C C12G A13C U31C A57G U76A	0.47
U1C C12U A15C A45G A57G U67A C79A	0.16
U1C C12U A15U A20G C37U U60A	0.03
U1C C12U A28G U31G	0.57
U1C C12U A28U U60A U66C U72C A77G	0.19

Variant	self-cleavage
U1C C12U A65G	0.75
U1C C12U C29U A35G U69C A75U	0.14
U1C C12U U25A A35U U41G U58C A64U	0.03
U1C C12U U31C A35G U69G U78A	0.88
U1C C12U U31C U41C U67A	0.18
U1C C12U U60A U72A	0.53
U1C C14A A21G U43C A65G	0.26
U1C C14A C40U A45U U51A U60C U72C	0.09
U1C C14G A47G U51A G61U U67C	0.08
U1C C14G U54C U60C U66C	0.17
U1C C14U U69A	0.69
U1C C17A A18G A21G U49C A65U U80A	0.03
U1C C17A U60A U66C U69A U72A	0.04
U1C C17U U41C U74C U76C	1
U1C C23A A47U	0.05
U1C C23G A35U U43G	0.19
U1C C23G C29U U41C U51C G63A U66A	0.05
U1C C23G U25C U80C	0.05
U1C C23G U26C A28U A64G U78C U80C	0.04
U1C C27A A28G U49A	0.25
U1C C27G U49A	0.26
U1C C27U A45U U51C U69C	0.16
U1C C27U G33A	0.06
U1C C27U U41C U48C U69A	0.16

Variant	self-cleavage
U1C C29U A45U A56G U60C C62U	0.07
U1C C29U U41C U49C	0.09
U1C C29U U43C A45G U69C	0.15
U1C C29U U48C U69A	0.07
U1C C29U U72C	0.65
U1C C32G U43C A64G U72A	0.07
U1C C32U A35G U41A A45G U67C C71G	0.02
U1C C32U A47G	0.56
U1C C32U U74C	0.41
U1C C34U G42A A45G	0.22
U1C C34U U67C U69C	0.06
U1C C37A A47G U49A	0.06
U1C C37U U43C	0.09
U1C C37U U54A A56G	0.52
U1C C39U G63A	0.64
U1C C40A A64U	0.17
U1C C40A U41C	0.08
U1C C40G A45U U60A	0.16
U1C C40U A45U U48C U69C U78C	0.05
U1C C40U A47G	0.24
U1C C40U U41G A57U U58C	0.05
U1C C59G U72A	0.18
U1C G6A A15U C23G U78C	0.04
U1C G6A A35C U51C A64G	0.06

Variant	self-cleavage
U1C G6A C40U U51C	0.07
U1C G6A U41A U43C A45G A47G	0.06
U1C G6A U49C A64G U72C U80C	0.16
U1C G6A U69C	0.21
U1C G6U A47G A57U	0.09
U1C G6U C12A U26C U54C	0.24
U1C G6U U41C A56G	0.1
U1C G7A A15G A21G U26C A57G U76A	0.03
U1C G7A A15U U43C	0.06
U1C G7A A18U	0.27
U1C G7A A21G U25A U67A	0.04
U1C G7A A28C A65G U69A U72C	0.04
U1C G7A A35U U54C U58A A77U	0.05
U1C G7U A15G G30U U48C U58C A77U	0.14
U1C G7U A21G	0.07
U1C G7U C23G U26C U51A U78G	0.04
U1C G7U U26C U31A U58C U60C U78A	0.03
U1C G7U U51C A56U	0.1
U1C G8A A13G A21G U72C	0.06
U1C G8A A15G	0.05
U1C G8A A15G C29U U41A G53C U80C	0.04
U1C G8A A18G A20U A35U	0.14
U1C G8A A20U U49C A64G	0.04
U1C G8A C39A U48G A77G C81A	0.04

Variant	self-cleavage
U1C G8A U49C A77U	0.04
U1C G8A U60C U66G A77U	0.19
U1C G8C A28G U67G	0.05
U1C G8C A57U	0.37
U1C G8U A15U G16A U41C A77G	0.06
U1C G8U G24A U78C	0.06
U1C G9A C14U U41C A47G A57G	0.52
U1C G9A C37A	0.35
U1C G9A U25C	0.06
U1C G9U A15U G16C U51A	0.05
U1C G10A A18G	0.34
U1C G10A A21U	0.17
U1C G10A A35U	0.21
U1C G10A C62U	0.03
U1C G10A G70A G73A	0.32
U1C G10A U69C	0.13
U1C G10U U78C	0.28
U1C G16A U25C A28G U74C	0.07
U1C G16A U26A U49A	0.29
U1C G16U A56U U60A U78C	0.06
U1C G16U U41C G52A U69G	0.21
U1C G16U U41G	0.06
U1C G19A A35G G73A	1.18

From the RNAGym collection of RNA variant scans (doi:10.1093/nar/gkz1192)
